# Test results as given in PubChem BioAssay AID2202238 (Ras Initiative Chemistry Research Team, Frederick National …, 2025).
# Some of the results follow. The main result of the screen is listed elsewhere. These columns were measured beside it and carry no call.
# Molecular target: GTPase KRas (Homo sapiens) (UniProt P01116)
# Test: Fragment capture on engineered cysteines, share of protein labelled (AID 2202238)
# Design: protein at 5 µM with 500 µM competing thiol for 1.5 h
# Settings: KRAS G12D cysteine mutants, disulfide tethering, MALDI-TOF labeling, stronger effect = higher value, fragment at 500 µM
# [1] = measured here: G60C mutant labeling
# [2] = measured here: G75C mutant labeling
# [3] = measured here: H94C mutant labeling
# [4] = measured here: I36C mutant labeling
# [5] = measured here: L120C mutant labeling
# [6] = measured here: M67C mutant labeling
# [7] = measured here: M72C mutant labeling
# [8] = measured here: N26C mutant labeling
# [9] = measured here: N86C mutant labeling
# [10] = measured here: P121C mutant labeling
# [11] = measured here: S122C mutant labeling
# [12] = measured here: S136C mutant labeling
# Chain of UniProt P01116 (P01116 whole entry, looked up, the tested form may be a part): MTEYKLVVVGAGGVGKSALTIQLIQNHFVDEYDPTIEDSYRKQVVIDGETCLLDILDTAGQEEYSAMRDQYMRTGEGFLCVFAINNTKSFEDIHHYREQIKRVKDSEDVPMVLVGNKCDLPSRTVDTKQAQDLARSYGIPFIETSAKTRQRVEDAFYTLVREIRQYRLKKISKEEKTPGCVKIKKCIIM
Compound,percent labeling [1] [%],percent labeling [2] [%],percent labeling [3] [%],percent labeling [4] [%],percent labeling [5] [%],percent labeling [6] [%],percent labeling [7] [%],percent labeling [8] [%],percent labeling [9] [%],percent labeling [10] [%],percent labeling [11] [%],percent labeling [12] [%]
CCc1nc(COc2ccc(C(=O)NCCS)cc2)no1,23.7,12.2,22.9,19.7,23.7,18.1,31.3,33,20.4,17.6,16.7,24.1
O=C(CCS)Nc1ccc(Oc2ccc(F)cc2)c2ccncc12,,18.2,9.8,25.9,11.4,13.2,25.7,,21.2,11.2,3.2,23.2
O=C(CCS)NCc1cc(=O)[nH]c(C2CC2)n1,,10.1,25.2,42.7,29.4,37.1,14.6,,32.1,29.8,31,54.6
Cc1nc(NC(=O)CCS)sc1Cc1ccccc1,,13.7,15.3,20.1,25,19.8,32.5,,17.7,11.3,8.2,26.1
O=C(CCS)Nc1cnn(-c2ccccc2)c1,,10.9,17.3,22.3,14.3,18.9,47.6,,9.1,16,14.6,34.3
O=C1NC(=O)C2(CCC(C(=O)NCCS)CC2)N1 (stereo not drawn),37.2,14.1,42.3,31,37.1,33.5,25.1,44.8,30.2,33.7,36.3,49.5
O=C(CCS)Nc1ccnn1Cc1ccc(Cl)cc1,,26.3,36.7,36.6,21.5,34.8,52.2,,27,27.4,27.3,39.7
COCc1nc2sc(C(=O)NCCS)c(C)c2c(=O)[nH]1,26.9,17.5,22.2,19.7,16.1,22.9,48.2,44.6,22.5,16.5,14.8,33.8
O=C(NCCS)C1CCCN(c2ncnc3sccc23)C1 (stereo not drawn),44.3,19.6,26.8,22.8,17.6,41.6,27.2,40.5,17.9,20.5,15.2,35.8
